According to PubChem BioAssay AID1345082 (National Center for Advancing Translational Sciences (NCATS), 2018):
“And” between values parts separate entries of the source, which are not always exact repeats. Equal entries are not always repeated. Screen size: about 94,000 compounds; about 4,000 (4.3%) were called active. Inconclusive means that the source gave no clear call. Such entries were picked first, then a sample of the others. Calls follow the shape of the dose curve; as a rule, active = well fitted inhibition curve with a large enough effect; inconclusive = small, poorly fitted or top-dose-only effect; inactive = no such curve, though single readings can be large or run the other way. A potency beside an inconclusive call is a rough fit, not a confirmed value.
Potency is read from the fitted curve at half-maximal effect; tags tell the direction and shape of the fitted curve.

Assay: Cytotoxic Profiling in NIH 3T3 Cell Line of Diverse Libraries Using Quantitative High-Throughput Screening; also: nearly all actives have a fitted effect of over 55% in size
Conditions: NIH 3T3 viability, CellTiter-Glo ATP luminescence, 48-72 h; series mostly up to 96.7 µM
Procedure, shortened: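 Cytotoxicity was measured by CellTiter-Glo ATP luminescence after 48 or 72 h compound exposure at 37 °C. Mouse NIH 3T3 fibroblasts were seeded at 400 cells/well and dosed by 23 nL pin transfer.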
In the case of CN1CCC(N[C@H]2[C@H](O)[C@H](O)C[C@@H]2c2ccc(N3CCOCC3)nc2)CC1, the Potency is reported as “inactive”.
In the case of COCCn1cc2c3c(cccc31)CN(C(=O)COc1cccc(C)c1)CC2, the Potency is reported as inconclusive: 50.1 µM [inhibitor, partial curve, poor fit].
For Cc1cc(F)ccc1OCC(=O)c1ccc2c(c1)N(C(C)C(=O)N1CCCCC1)C(=O)CO2 (centres undefined), the Potency was inconclusive: 50.1 µM [inhibitor, partial curve, poor fit].
For Cc1ccc(C(=O)NC2CCCN(c3ccc4nnc(-c5ccccc5)n4n3)C2)cc1 (centres undefined), the Potency was inconclusive: 4.47 µM [inhibitor, full curve] and inconclusive: 79.4 µM [inhibitor, single point].
With O=C(COc1ccccc1)N1CCOC[C@H](Oc2ccccc2)C1 the Potency was “inactive”.
For O=C1NCCCCCN(C(=O)CC2CCCCC2)[C@@H]2C[C@@H](C(=O)N3CCc4ccccc4C3)C[C@H]12, the Potency was inconclusive: 50.1 µM [inhibitor, partial curve, poor fit].
In the case of CCc1cc(=O)n(CC(=O)Nc2ccc(C(C)C)cc2)c(N2CCOCC2)n1, the Potency is reported as inconclusive: 11.2 µM [inhibitor, full curve, poor fit].
In the case of CSc1ccc(-c2cccc(C(=O)NCCNC(=O)c3ccc(Cl)cc3)c2)cc1, the Potency is reported as inconclusive: 79.4 µM [inhibitor, partial curve, poor fit].
For CCn1c(C2CCN(S(=O)(=O)c3ccc(OC)cc3)CC2)nn(C)c1=O, the Potency was “inactive”.
For CCc1[nH]c2c(CNC(=O)c3n[nH]c4c3CCC4)cc(C)cc2c1C, the Potency was active: 35.5 µM.
In the case of O=c1[nH]c(C2CCCN(Cc3ccc(F)cc3)C2)nn1-c1ccc(Cl)cc1 (centres undefined), the Potency is reported as active: 35.5 µM.
With CCCn1cc2c3c(cccc31)CN(C(=O)c1ccc(OC)cc1)CC2 the Potency was inconclusive: 35.5 µM [inhibitor, partial curve].
For COc1cccc(-c2cc(C3CCN(C(=O)Nc4ccccc4C)CC3)[nH]n2)c1, the Potency was inconclusive: 50.1 µM [inhibitor, partial curve, poor fit].
In the case of O=C(C1CCOCC1)N1CCC(Oc2ccccc2-c2nc(-c3ccccc3)no2)C1 (centres undefined), the Potency is reported as inconclusive: 50.1 µM [inhibitor, single point].
For O=C(Nc1ccccc1)c1cnc(-c2ccc(F)cc2)nc1-c1ccncc1, the Potency was inconclusive: 50.1 µM [inhibitor, partial curve, poor fit].
For O=C(C1CCCO1)N1CCCC(c2ccccc2)(c2ccccc2)C1 (centres undefined), the Potency was “inactive”.
In the case of Cc1cc(C)n(CCC(=O)N2CCC(Cc3noc(-c4ccccc4)n3)C2)n1 (centres undefined), the Potency is reported as inconclusive: 31.6 µM [inhibitor, partial curve, poor fit].
With c1ccc(-c2[nH]nc3ncc(-c4cn[nH]c4)nc23)cc1 the Potency was inconclusive: 7.94 µM [inhibitor, full curve, poor fit].
With COc1ccc([S+](=O)([O-])N2CCCN(c3ccc4nnc(C)n4n3)CC2)cc1 the Potency was inconclusive: 44.7 µM [inhibitor, partial curve, poor fit].
With Cc1csc(NC(=O)c2nc3c(o2)CCN(CCCc2ccccc2)CC3)n1 the Potency was inconclusive: 50.1 µM [inhibitor, partial curve, poor fit].
In the case of CC(C)NC(=O)c1coc(COc2ccc3c(c2)C(c2cccc(F)c2)N(C(=O)C2CC2)CC3)n1 (centres undefined), the Potency is reported as active: 22.4 µM.
In the case of CCNC(=O)N(C)Cc1cccc(N2CCN(C(=O)c3c(Cl)cccc3Cl)CC2)c1F, the Potency is reported as inconclusive: 35.5 µM [inhibitor, partial curve, poor fit].
With Cc1ccc(NC(=O)Cn2c(C)cc3nc4n(c(=O)c32)CCC4)cc1Cl the Potency was inconclusive: 44.7 µM [inhibitor, partial curve, poor fit].
In the case of O=C(Cn1cccc1-c1nc(-c2ccc3c(c2)OCO3)no1)Nc1ccc(Cl)cc1F, the Potency is reported as “inactive”.
With O=C(NCc1cccs1)c1ccc2nnc(C3CC3)n2c1 the Potency was “inactive”.
For O=C([C@@H]1C[C@H](F)CN1S(=O)(=O)Cc1ccc(Cl)cc1)N1CCc2ccccc2C1, the Potency was active: 15.8 µM.
In the case of O=C(NCCc1ccc(Cl)cc1)C1CCc2nnc(CN[S+](=O)([O-])c3ccccc3Cl)n21 (centres undefined), the Potency is reported as inconclusive: 50.1 µM [inhibitor, partial curve, poor fit].
With O=C(NCC(F)(F)F)c1ccc2oc(-c3ccncc3)nc2c1 the Potency was inconclusive: 39.8 µM [inhibitor, partial curve, poor fit].
In the case of COc1ccc(CCNC(=O)c2cn3cc(-c4ccccc4)sc3n2)cc1, the Potency is reported as “inactive”.
With COc1ccc(CCNC(=O)c2cn3cc(-c4cccc(C(F)(F)F)c4)sc3n2)cc1 the Potency was inconclusive: 35.5 µM [inhibitor, full curve, poor fit].
With COc1ccccc1OCCC1CCN(C(=O)c2cccc(F)c2)C1 (centres undefined) the Potency was inconclusive: 44.7 µM [inhibitor, partial curve, poor fit].
In the case of COC1CCOC2(CCN(C(=O)c3ccc4ccccc4n3)CC2)C1 (centres undefined), the Potency is reported as “inactive”.
With O=C(NC(C(=O)N1CCCCC1)C1CCN(C(=O)CCc2ccccc2)CC1)c1cccs1 (centres undefined) the Potency was inconclusive: 70.8 µM [inhibitor, single point].
For CN1CCCN(C(=O)CCC[C@@H]2[C@H]3CCCN4CCC[C@@H](CN2Cc2ccccc2)[C@@H]34)CC1, the Potency was inconclusive: 44.7 µM [inhibitor, partial curve, poor fit].
With CC(Cc1ccncc1)Nc1nccc(-c2cnn(-c3ccccc3)c2)n1 (centres undefined) the Potency was inconclusive: 35.5 µM [inhibitor, partial curve, poor fit].
With CCCCNC(=O)c1ccc2c(c1)N(C(=O)c1ccc(F)cc1)CC2 the Potency was inconclusive: 44.7 µM [inhibitor, partial curve, poor fit].
With O=C(Nc1ccccc1)c1ccc(-c2cccc3c2CCNC3)o1 the Potency was active: 44.7 µM.
For COc1cccc(-c2cc(C3CCN(C(=O)Nc4ccc(Cl)cc4F)CC3)[nH]n2)c1, the Potency was inconclusive: 50.1 µM [inhibitor, partial curve, poor fit].
With Cc1ccc(-c2nocc2CCC(=O)NCc2cccc(Br)c2)cc1 the Potency was inconclusive: 70.8 µM [inhibitor, single point].
